Results published in PubChem BioAssay AID938 (National Center for Advancing Translational Sciences (NCATS), 2007).
Values joined by “and” are separate entries in the source; they are usually repeats but may differ in a detail not shown here. Equal values may be shown once. In all, about 73,000 compounds went through this assay and about 1,800 (2.5%) were called active. The shares of active, inactive and inconclusive entries below differ from those in the screen. The call rests on the fitted dose curve; in most records, active means well fitted activation curve with a large enough effect; inconclusive means small, poorly fitted or top-dose-only effect; inactive means no such curve, though single readings can be large or run the other way. Potencies of inconclusive entries are left out as doubtful fits.

Assay: qHTS Assay for Agonists of the Thyroid Stimulating Hormone Receptor: Activators of Intracellular cAMP Concentrations in Parental HEK 293; further: nearly all actives have a fitted effect of over 55% in size; on activation: % of control where 0% means no effect
Details: parental HEK293 CNG cAMP sensor, membrane potential fluorescence; activation: at 57.1 µM (top of the series) unless noted
In short: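 Counterscreen for endogenous-receptor signalling: CNG-channel HEK 293 cells report cAMP rise by membrane depolarization. After 60 min dye equilibration with 100 uM RO 20-1724, compounds incubated 30 min before bottom-read fluorescence at 590 nm.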
Potency means the concentration at half of the fitted maximal effect; tags describe the fitted curve by direction and shape.

SMILES | Potency | activation
CCOC(=O)C1CCN(C(=O)c2ccc(Cl)c(NC3=NC4CS(=O)(=O)CC4S3)c2)CC1 (stereo not given) | inconclusive [activator, single point] | –
O=C(CSc1nnc(Cn2nnc3ccccc32)o1)N(Cc1ccc(F)cc1)c1ccccc1 | active: 15.8 µM | –
CN(C(=O)c1ccncc1)c1nnc(-c2cccnc2)s1 | inconclusive [activator, single point] | –
COc1ccc(NC(=O)N2CC[C@@]3(CCCN(S(C)(=O)=O)C3)C2)cc1 | – | inactive: 12.7%
Cc1nc(SCC(=O)N2CCN(C(=O)c3ccco3)CC2)c2c(C)c(C)sc2n1 | inconclusive [activator, single point] | –
COc1ccc(-c2nnn(CC(=O)N(C3CCCCC3)C(C)C(=O)NC3CCCC3)n2)cc1OC (stereo not given) | inconclusive [activator, partial curve] | –
O=c1cc(O)c2c(=O)n(-c3ccccc3)c3ccccc3c2o1 | inconclusive [activator, single point] | –
CN(C)C(=O)c1ccc(-c2nc(Nc3ccc(F)cc3)c3ccccc3n2)cc1 | – | inactive: 15.6%
c1ccc(C(c2nnnn2Cc2ccco2)N2CCN(C3CCCC3)CC2)cc1 (stereo not given) | inconclusive [activator, partial curve] | –
COc1cccc(NC(=O)C(C)Oc2ccccc2)c1 (stereo not given) | inconclusive [activator, single point] | –
Cc1nn(Cc2ccc(F)cc2)c(C)c1NC(=O)c1noc2c1CCCCC2 | inconclusive [activator, single point] | –
CCS(=O)(=O)N1CCC(C(=O)NCc2cccnc2)CC1 | inconclusive [activator, single point] | –
Cc1cc(C(=O)NCc2cc(C)n(C)n2)sc1-c1ccccc1 | inconclusive [activator, single point] | –
CCCOc1ccccc1C1CC(=O)Nc2cc3c(cc21)OCO3 (stereo not given) | active: 7.94 µM | –
COCCNc1nc(-c2c(C)noc2C)nc2ccccc12 | – | inactive: -8.81%
CC1CCCN(C(=O)CSCC(=O)N=c2sc3ccccc3n2C)C1 (stereo not given) | inconclusive [activator, single point] | –
Cn1c(=O)c2c(SCC(=O)NCC3CCCO3)nc(-c3cccs3)nc2n(C)c1=O (stereo not given) | – | inactive: 14.6%
Cc1cc(C)c(C)c(S(=O)(=O)NCc2ccco2)c1C | inconclusive [activator, single point] | –
O=C(N[C@@H](c1ccccc1)[C@@H]1C[C@H]1C(=O)NCc1ccccn1)OCc1ccccc1 | – | inactive: 11.8%
c1nc(NCCN2CCOCC2)c2c3c(sc2n1)CCCCC3 | inconclusive [activator, single point] | –
CCc1c(C)sc(NC(=O)c2cc(-c3ccco3)on2)c1C#N | inconclusive [activator, single point] | –
O=C(O)c1cc2c(ccc3ccccc32)o1 | inconclusive [activator, partial curve] | –
NCOC(=O)Cc1ccc(Br)cc1 | – | inactive: 3.48% [at 11.4 µM]
O=C(CSc1ncnc2c1oc1ccccc12)Nc1ccc2c(c1)OCCO2 | inconclusive [activator, partial curve] | –

SMILES | Potency | activation
COCCn1c(-c2cc(OC)c(OC)c(OC)c2)nc2nc3ccccc3nc21 | – | inactive: -0.339%
CSC(=NC1CCCCC1)NS(=O)(=O)c1ccccc1 | inconclusive [activator, single point] | –
COc1ccc(NC(=O)c2cc(-c3ccccc3OC)on2)cc1 | inconclusive [activator, single point] | –
O=C(Nc1cccnc1)c1cc(-c2cccs2)on1 | – | inactive: -0.716%
CCCN(c1ccc(C(C)C)cc1)S(=O)(=O)c1c(C)noc1C | inconclusive [activator, partial curve] | –
Cc1ccccc1NC(=O)C1CCCN1C(=O)NC1CCCCC1 (stereo not given) | inconclusive [activator, single point] | –
CC(=O)N1CCN(c2ccc(NC(=O)c3ccccc3Br)cc2Cl)CC1 | – | inactive: -5.9%
CCOc1ccc(C(=O)O)cc1OC | inconclusive [activator, full curve, poor fit] | –
Cc1c(NC(=O)c2ccc3c(c2)OCO3)cccc1-c1nc2ccccc2o1 | inconclusive [activator, single point] | –
O=C(COC(=O)c1cnccn1)Nc1ccc(Cl)cc1 | inconclusive [activator, single point] | –
CCCCCCN(CCCCCC)C(=O)Cc1c(-c2ccc(F)cc2)[nH]c2ccccc12 | inconclusive [activator, full curve] | –
COc1cc(C(=O)N2CCCN(c3nc4cc(C)ccc4cc3C#N)CC2)cc(OC)c1OC | inconclusive [activator, partial curve] | –
N#Cc1nc(COc2ccccc2F)oc1N1CCCCCC1 | inconclusive [activator, single point] | –
CCOC(=O)N1CCN(C(=O)CSCC(=O)Nc2nc(-c3cccs3)cs2)CC1 | inconclusive [activator, partial curve] | –
CN1CCN(C(=O)c2ccc(-n3c(=O)c(=O)[nH]c4ccccc43)cc2)CC1 | – | inactive: -18.3%
COc1ccccc1N1CCN(C(=O)c2c(-c3ccccc3Cl)noc2C)CC1 | inconclusive [activator, single point] | –
COc1ccc(Br)cc1CNCCSc1nnnn1C | inconclusive [activator, single point] | –
COc1cccc(-c2ccc3ncnc(N4CCN(C)CC4)c3c2)c1 | – | inactive: 21.8%
COC(=O)[C@@H]1CC[C@H](C)[C@@H](c2ccc(C)cc2)N1C(=O)c1ccc(/C=N\O[C@@H](C)c2cn([C@H](CO)Cc3ccccc3)nn2)cc1 | – | inactive: 9.66% [at 11.4 µM] and inactive: 5.24% [at 11.4 µM]
O=C(OC1CCc2ccccc2C1=O)c1ccccc1O (stereo not given) | inconclusive [activator, single point] | –
CC(C)CNC(=O)c1ccccc1NC(=O)c1ccc(CN2CCOCC2)cc1 | inconclusive [activator, partial curve] | –
CN1C(=O)CSc2ccc(NC(=O)N3CCOCC3)cc21 | – | inactive: 3.38%
CC1CCCN(S(=O)(=O)c2ccc(C(=O)Nc3nnc(-c4ccccc4Cl)o3)cc2)C1 (stereo not given) | inconclusive [activator, single point] | –
COC(=O)c1sccc1NS(=O)(=O)c1ccc(OC)cc1 | inconclusive [activator, single point] | –

SMILES | Potency | activation
O=C(CCCOc1ccc(Cl)cc1Cl)N1CCN(c2ccccn2)CC1 | inconclusive [activator, full curve, poor fit] | –
Cc1ccc(N(CC(=O)N2CC(=O)Nc3ccccc32)S(=O)(=O)c2ccc3c(c2)OCCO3)cc1 | – | inactive: 10.1%
COC(=O)COc1cccc(-n2cnnn2)c1 | – | inactive: 4.09%
CSc1nc(N)c2ncn([C@H]3O[C@H](COP(=O)(O)OP(=O)(O)O)[C@@H](O)[C@@H]3O)c2n1 | – | inactive: 19.3%
COc1ccc(C(c2nnnn2Cc2ccccc2)N2CCN(C(=O)c3ccco3)CC2)cc1 (stereo not given) | inconclusive [activator, single point] | –
O=C(O)c1cc2n(n1)C(C(F)(F)F)CC(c1ccco1)N2 (stereo not given) | inconclusive [activator, single point] | –
COC(=O)c1ccc(CSc2nc3c(c(=O)n2-c2ccc(Br)cc2)SCC3)o1 | inconclusive [activator, partial curve] | –
Cc1nn(-c2ccccc2)c(C)c1C(=O)OC/C(O)=C(\C#N)c1nc2ccccc2[nH]1 | – | inactive: -3.09%
COCCn1c(=O)c(C)nc2cnc(OC)nc21 | – | inconclusive: 84.7% [activator]
COc1ccc(Cl)cc1CN1CCN(c2nc(C)cc(C)c2C#N)CC1 | inconclusive [activator, partial curve] | –
Cc1ccc(C)c(-n2c(SCC(=O)Nc3nonc3C)nnc2-c2ccoc2C)c1 | active: 25.1 µM | –
COC(=O)c1cc(Br)c(=O)n(Cc2ccncc2)c1 | – | inactive: 5.59%
O=C(CSc1nnc(C2CC2)n1Cc1ccccc1)c1ccc(S(=O)(=O)N2CCOCC2)cc1 | inconclusive [activator, single point] | –
COC(=O)c1c(C)nn(-c2ccccc2)c1N | – | inactive: 1.32%
Cn1c(CNc2ccc(Cl)cc2)nc2ccccc21 | – | inactive: -3.13%
COCCCNC(=O)Cn1nnc(-c2ccccc2NC(=O)c2ccccc2F)n1 | inconclusive [activator, single point] | –
CCCc1c(CC)c(=N)c2ccccc2n1C | inconclusive [activator, partial curve] | –
O=C(C1CC1)N(CCc1ccccc1)Cc1nc2ccccc2c(=O)[nH]1 | inconclusive [activator, full curve, poor fit] | –
Cc1cc(C(=O)OCC(=O)Nc2nc(-c3ccccc3)cs2)c(C)o1 | inconclusive [activator, single point] | –
COC(=O)NC(c1cccc(C)c1)[C@]1(C(C)=O)CCOC1=O (stereo not given in full) | – | inactive: 13% [at 11.4 µM]
CSCCC(NC(N)=O)C(=O)NCC1CCCCC1 (stereo not given) | inconclusive [activator, single point] | –
COc1ccccc1CN(Cc1cc2c(C)ccc(C)c2[nH]c1=O)Cc1nnnn1Cc1ccco1 | inconclusive [activator, partial curve] | –
